For two molecules, binding results are on record in paper PMC4769169 (eLife, 2016).

Chains of the proteins cited; added tags and fusions are not shown. Lines headed by an entry give the natural chain unless they say otherwise; changes in a name come on top.
UniProt P61026: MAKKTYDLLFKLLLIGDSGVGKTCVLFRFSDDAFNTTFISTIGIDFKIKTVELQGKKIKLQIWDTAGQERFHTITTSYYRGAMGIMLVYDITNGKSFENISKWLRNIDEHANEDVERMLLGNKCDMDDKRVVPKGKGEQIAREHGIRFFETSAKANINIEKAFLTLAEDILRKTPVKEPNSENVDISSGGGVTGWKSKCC
UniProt P61006: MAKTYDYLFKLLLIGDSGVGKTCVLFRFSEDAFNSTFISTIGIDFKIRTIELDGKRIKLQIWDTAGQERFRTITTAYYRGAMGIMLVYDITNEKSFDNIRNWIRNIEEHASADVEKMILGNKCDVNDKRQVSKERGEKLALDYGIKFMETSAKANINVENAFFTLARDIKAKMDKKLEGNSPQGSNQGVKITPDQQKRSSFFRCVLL

Some targets named below: HA-Rab10 T73E (UniProt P61026); HA-Rab8a (wild type) (UniProt P61006); HA-Rab10 T73A (UniProt P61026).
Common to all, as to assay: co-IP; HA-Rab constructs expressed in HEK293; lysates incubated with HA-agarose for 1 hr, washed with PBS; western blotting (anti-GDI1/2); in Figure 6C-F different LRRK2 versions were co-expressed
Background: Immunoblotting shows a protein as a band on a membrane.

In a further experiment the target is T1, HA-Rab12 S106A (human) (UniProt Q6IQ22).
T1 sequence: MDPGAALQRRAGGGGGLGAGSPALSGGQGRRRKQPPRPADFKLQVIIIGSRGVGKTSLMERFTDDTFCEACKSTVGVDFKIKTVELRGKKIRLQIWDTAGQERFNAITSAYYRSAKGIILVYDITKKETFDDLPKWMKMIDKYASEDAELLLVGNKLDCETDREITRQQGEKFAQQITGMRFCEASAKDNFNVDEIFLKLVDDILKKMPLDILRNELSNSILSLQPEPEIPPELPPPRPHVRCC

In a further experiment the target is T2, HA-Rab12 S106E (human) (UniProt Q6IQ22).
T2 sequence: T1 sequence with A106E

The target of experiment [1] is T3, HA-Rab12 (wild type) (human) (UniProt Q6IQ22).
T3 sequence: T1 sequence with A106S

Positions count from the first letter of the chain named. These are yes or no findings as the source states them, for the method shown. In cells and extracts the contact can be indirect. Some entries that bind do so weakly or less than the wild type. For part of these data: Where a sequence is shown, tags or fusion partners need not be part of it.

B1: Rab GDP dissociation inhibitor α (GDI1) (protein, UniProt P31150 1-447)
chain: MDEEYDVIVLGTGLTECILSGIMSVNGKKVLHMDRNPYYGGESSSITPLEELYKRFQLLEGPPESMGRGRDWNVDLIPKFLMANGQLVKMLLYTEVTRYLDFKVVEGSFVYKGGKIYKVPSTETEALASNLMGMFEKRRFRKFLVFVANFDENDPKTFEGVDPQTTSMRDVYRKFDLGQDVIDFTGHALALYRTDDYLDQPCLETVNRIKLYSESLARYGKSPYLYPLYGLGELPQGFARLSAIYGGTYMLNKPVDDIIMENGKVVGVKSEGEVARCKQLICDPSYIPDRVRKAGQVIRIICILSHPIKNTNDANSCQIIIPQNQVNRKSDIYVCMISYAHNVAAQGKYIAIASTTVETTDPEKEVEPALELLEPIDQKFVAISDLYEPIDDGCESQVFCSCSYDATTHFETTCNDIKDIYKRMAGTAFDFENMKRKQNDVFGEAEQ
As to B1, the binding result in the experiment with HA-Rab10 T73E is listed as “no binding”; with HA-Rab8a (wild type), “binds”; with HA-Rab12 S106A (human) it was “binds”; with HA-Rab12 S106E (human) it was “no binding”; in experiment [1], “binds”; in the experiment with HA-Rab10 T73A it was “binds”.

B2: Rab GDP dissociation inhibitor β (GDI2) (protein, UniProt P50395 1-445)
chain: MNEEYDVIVLGTGLTECILSGIMSVNGKKVLHMDRNPYYGGESASITPLEDLYKRFKIPGSPPESMGRGRDWNVDLIPKFLMANGQLVKMLLYTEVTRYLDFKVTEGSFVYKGGKIYKVPSTEAEALASSLMGLFEKRRFRKFLVYVANFDEKDPRTFEGIDPKKTTMRDVYKKFDLGQDVIDFTGHALALYRTDDYLDQPCYETINRIKLYSESLARYGKSPYLYPLYGLGELPQGFARLSAIYGGTYMLNKPIEEIIVQNGKVIGVKSEGEIARCKQLICDPSYVKDRVEKVGQVIRVICILSHPIKNTNDANSCQIIIPQNQVNRKSDIYVCMISFAHNVAAQGKYIAIVSTTVETKEPEKEIRPALELLEPIEQKFVSISDLLVPKDLGTESQIFISRTYDATTHFETTCDDIKNIYKRMTGSEFDFEEMKRKKNDIYGED
For B2, the binding result was “no binding” with HA-Rab10 T73E; “binds” with HA-Rab8a (wild type); “binds” with HA-Rab12 S106A (human); “no binding” with HA-Rab12 S106E (human); “binds” in experiment [1]; “binds” with HA-Rab10 T73A.
